From the supplement of paper PMC12632987 come the findings set out here.

In all, about 4,500 sequences were measured (“median log2 fold change of GCK-ALFA target abundance (FLAG IP / Myc IP barcode read proportion)”: median about 0.078, lowest 2% from about -0.6 on). This is one part of the list.

The chains are these.
B1: GBRAP_160_4219 (protein)
chain: METIERIVEIFRENFLEALELIEGESEEERKVILDVAVGEIILEVDSDENVTDEMEEVVDEKARELAEELLKLKNASEEEKRALIEEKAEELREELEKLA
B2: GBRAP_186_5394 (protein)
chain: EEDEEEEDKLIEELEKENDIVIIVYLDSSKSLEEKKKIMDNDAEAMAALAKETGKKVALVFRVVDDEENLKELKEHVEKLNKEYKAKSGVTVKLIGFKKE
B3: GBRAP_35_5521 (protein)
chain: SSDTTTVEMLVATIEDLTLAVPDMPVEDATKIANSLIKDAEELAEDVKNNVEGLKKLRDALKALRDALEKHYGDNPLAQETIAKIDKLIAKIDELIAKAK
B4: GBRAP_96_7088 (protein)
chain: ELEEVKKLVKKLLEALNTDPELARKYAKELLKYPPELIAKALKELGVSDEEAVELFRILYEEDPSRAADLIDALTEIVSSEAVVKMVEIAIELEKRREEE
B5: GBRAP_26_5424 (protein)
chain: ISEAFDEAIERISAAAKELLDPETAAALRAVVTDEILEAEEKIEEENLSEEEVEKLLEEVLKEIEEALKELGVPEEKRKKLVEVAREELEKVLKKIKEER
B6: GBRAP_11_2773 (protein)
chain: KAEELKKLAELAEKLAELAQKLIEEGPDNEELIKKAEETLKEAEELAKKYGSEAMKKDVKLMKELFKKALEDPENAEQYLQELENQARVLAGQALLEAEE
B7: GBRAP_11_2882 (protein)
chain: SKEKLKELAELAEELARTLAALLEEGVDNAELRARAEELLRRLRELTKKYADEAEQKLVEILEEEWRRALADPETAAQHWQEALAVARVLEGQYLLKLEE
B8: GBRAP_11_2844 (protein)
chain: KKEELEKLREEAEELAEETAALIASGNPSKEQLEELLKRVKELLERVKKHASEASKKLAEIALEDVEKAIADPATQQQHLNEALAALRVLAGQLLLEIEE

Sequence of GABARAP, O95166 (O95166 whole entry, the tested form may be a part): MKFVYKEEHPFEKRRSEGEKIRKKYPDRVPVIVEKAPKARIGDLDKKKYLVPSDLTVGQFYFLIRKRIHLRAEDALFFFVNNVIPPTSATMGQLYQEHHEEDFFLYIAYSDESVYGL

The assay concerns the target GABARAP, O95166. Kind of assay: median log2 fold change of GCK-ALFA target abundance (FLAG IP / Myc IP barcode read proportion) (log2 ratio); each designed protein is fused to an ALFA-tag nanobody in HEK293 cells to bring the named protein to FLAG-tagged glucokinase (GCK); Myc marks an untargeted standard; higher = target protein stabilised (more abundant). The note with it: target protein: 3xFLAG-MCP-GCK-ALFA reporter; HEK293 landing pad (RPLP). The gist of the method: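 Binders fused to an ALFA nanobody were recombined as a library into HEK293 landing-pad cells, which were induced with 2 μg mL^−1 doxycycline and then transfected to express a FLAG-tagged target and a Myc-tagged standard. After 48 h, circular RNA barcodes recovered by anti-FLAG and anti-Myc immunoprecipitation of lysates were reverse transcribed, amplified and sequenced. Each binder's target abundance is the median log2 ratio of FLAG to Myc barcode read proportions, from barcodes present at ≥10^−7 in both replicates, binders carrying ≥3 barcodes per replicate, a 10^−6 pseudocount and pooled replicates.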
B1: the “median log2 fold change” value is -0.349.

For B2, the “median log2 fold change” value is -0.016. For B3 the value was 0.173; for B4, 0.114. Turning to B5, the “median log2 fold change” value is 0.205. For B6 the value was 0.347; for B7, 0.059; for B8, 0.249.
